Among the data in patent US20020110853A1 (IMMUNEX, published 2002) are Ka values, retold here.

For the test, the target named is T1, human full length TWEAK, expressed on transfected CV-1 cells (human, UniProt O43508 1-249).
T1 construct: whole, on cells; also called TWEAK ligand
T1 sequence (looked up): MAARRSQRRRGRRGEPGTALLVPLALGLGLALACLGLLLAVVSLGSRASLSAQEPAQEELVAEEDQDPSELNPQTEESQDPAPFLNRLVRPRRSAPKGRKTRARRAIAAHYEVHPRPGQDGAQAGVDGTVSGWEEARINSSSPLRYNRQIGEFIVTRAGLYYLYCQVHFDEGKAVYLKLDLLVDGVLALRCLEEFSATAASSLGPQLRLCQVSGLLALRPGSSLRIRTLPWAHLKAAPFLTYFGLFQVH
Description: Scatchard analysis, 125I-TWEAKR-Fc on CV-1 cells transfected with human full length TWEAK mixed 1:30 with Raji cells, 4 degrees Celsius. An excerpt: Free and bound probe was separated by microfuging the samples through a phalate oil mixture in plastic tubes. Supernatants and pellets were gamma-counted.

B1: human TWEAKR-Fc (TWEAKR extracellular domain fused to Fc portion from human IgG1) (Fc fusion)
chain: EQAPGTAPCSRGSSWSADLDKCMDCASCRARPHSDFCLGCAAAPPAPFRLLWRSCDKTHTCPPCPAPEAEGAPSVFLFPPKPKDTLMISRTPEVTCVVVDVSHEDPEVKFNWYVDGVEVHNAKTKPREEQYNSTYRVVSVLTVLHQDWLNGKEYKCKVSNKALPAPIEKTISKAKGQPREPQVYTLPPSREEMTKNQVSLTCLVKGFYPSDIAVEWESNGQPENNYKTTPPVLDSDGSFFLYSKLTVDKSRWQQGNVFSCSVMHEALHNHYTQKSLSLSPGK
modifications: 125-I labeled in the Scatchard assay
notes: the assays name only TWEAKR-Fc; also called huTWEAKR-Fc
B1 returned a Ka of roughly 4.5e+08 M⁻¹.
